According to PubChem BioAssay AID686979 (National Center for Advancing Translational Sciences (NCATS), 2013):
About 50,000 (12%) of roughly 420,000 compounds were called active. Inconclusive means that the source gave no clear call. Such entries were picked first, then a sample of the others. Calls follow the shape of the dose curve; as a rule, active = well fitted inhibition curve with a large enough effect; inconclusive = small, poorly fitted or top-dose-only effect; inactive = flat fitted curve, though single readings scatter. Potencies of inconclusive entries are left out as doubtful fits.

experiment: qHTS for Inhibitors of human tyrosyl-DNA phosphodiesterase 1 (TDP1): qHTS in cells in presence of CPT; conditions: chicken DT40 Tdp1-/-;hTDP1 cells + 20 nM CPT, ATP luminescence, 48 h; series mostly up to 46.2 µM; also: nearly all actives have a fitted effect of over 55% in size
Summary of the method: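 Chicken DT40 Tdp1-/- cells stably complemented with human TDP1 were seeded at 400 cells/well in medium containing 20 nM camptothecin, exposed to pin-transferred compounds, and grown at 37 °C for at least 48 hr. Viability was read as ATP luminescence.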
Potency is read from the fitted curve at half-maximal effect; tags tell the direction and shape of the fitted curve.

Structure (SMILES) | Potency
CC(/C=C/c1ccccc1)=N\NC(=O)c1ccc2c(c1)OCCO2 | inconclusive [inhibitor, single point]
S=C(Nc1ccc2[nH]ccc2c1)NC1CCCCC1 | inactive
Cc1ccc(CN2C(=O)CCSc3ccc(Cl)cc32)cc1 | inactive
O=C1Nc2ccc(S(=O)(=O)N3CCCC3)c3ccc(S(=O)(=O)N4CCCC4)c1c23 | active: 8.2 µM
O=C(NC1CCCCC1)N1CCC(n2c(=O)[nH]c3ccccc32)CC1 | inconclusive [inhibitor, partial curve, poor fit]
Cc1cccc(CCNC(=O)c2cccc3c2C(=O)N(C2CCCCC2)C3)c1 | inconclusive [inhibitor, single point]
COC(=O)c1ccc(C(=O)OC)c(NC(=O)c2ccc(-c3ccccc3)s2)c1 | inactive
O=c1c2[nH]c3ccc(F)cc3c2nc2n1CCCS2 | inactive
Cn1cc([C@]2(O)C(=O)Nc3ccc(OC(F)(F)F)cc32)c2ccccc21 | inconclusive [inhibitor, single point]
CCCNC(=O)CCc1c(C)nc2c(c(C)nn2-c2ccc(C)cc2)c1C | inconclusive [inhibitor, single point]
O=C(CSc1nnc(-c2ccc3c(c2)OCO3)o1)Nc1ncc(C(F)(F)F)cc1Cl | inconclusive [inhibitor, single point]
Cc1cc(OCC(=O)N(Cc2ccc(N(C)C)cc2)CC2CCCO2)ccc1Cl (centres undefined) | active: 23.1 µM
Cc1ccc(N=C2NC(=O)/C(=C/C=C/c3ccco3)S2)cc1C | inconclusive [inhibitor, single point]
CCC/C=C/c1ccc(CN2C(C(C)C)C(=O)N(Cc3cn(CC4CCCCC4)nn3)CCS2(=O)=O)cc1 (centres undefined) | active: 16.4 µM
O=C(O)CN1C(=O)/C(=C/c2ccc(N3CCCCC3)o2)SC1=S | inconclusive [inhibitor, single point]
Cc1cccc(C)c1NC(=O)c1sc(-n2nc(C)c(Cc3ccccc3)c2C)nc1C | inconclusive [inhibitor, partial curve]
CC1CCN(CC(=O)Nc2ccc(S(=O)(=O)N3CCC(C)CC3)cc2)CC1 | inconclusive [inhibitor, single point]
COc1ccc(S(=O)(=O)N2CCN(CC(=O)c3c(N)n(C)c(=O)n(C)c3=O)CC2)cc1OC | inactive
CCN(Cc1ccccc1)C(c1cc2cc(C)cc(C)c2[nH]c1=O)c1nnnn1CCOC (centres undefined) | inconclusive [inhibitor, partial curve]
